Assay results: patent US7157092B1, “Acyl pseudodipeptides, preparation method and pharmaceutical compositions containing same” (Om Pharma, priority 1998, dated 2007)

Test system: predendritic cells (DC-6)
Test: Dendritic cell maturation: expression of CD40, CD80, CD83, CD86 surface markers
Conditions: DC-9 stage
Method: Cells: Mononucleated cells of peripheral blood are isolated from buffy coats of six healthy donors.
These cells are called predendritic cells (DC-6). Maturation of predendritic cells into mature dendritic cells is achieved by incubating cells with OM-294-MP, OM-294-DP or LPS for 3 further days at concentrations set below under Product section. At day 9, (DC-9) cells were harvested and analyzed for different indicators of dendritic cell maturation: assessment of CD40, CD80, CD83, CD86 surface markers as well as of their ability to take up FITC-Dextran conjugate. All theses parameters are analyzed by an EPICS-XL-MCL model FACS (Coulter Immunology, Hialeah, Finland).
Data analysis: Expression of surface markers is expressed as % of mean fluorescence of cells stimulated by LPS (positive control); FITC-Dextran conjugate take-up is calculated with respect to take-up rate for cells maintained in basic medium and is expressed in %. Statistic analysis by t-student test involves comparing data obtained from different tests with the data of a positive control. Data significance level is set at p<0.05.
Reference Product: E. coli lipopolysaccharide (LPS, DIFCO, Detroit, Mich., USA), as a 5 mg/ml stock solution in PBS. An intermediate 100 μg/ml solution is prepared in RPMI 1640 culture medium. […]

SMILES: CCCCCCCCCCCC(=O)O[C@H](CCCCCCCCCCC)CC(=O)NC(CCOP(=O)(O)O)C(=O)NCCCC(COP(=O)(O)O)NC(=O)C[C@H](O)CCCCCCCCCCC (stereo partly drawn) [OM-294-DP, 3-[(R)-3-dodecanoyloxytetradecanoylamino]-4-oxo-5-aza-9-[(R)-3-hydroxytetradecanoylamino]decan-1,10-diol 1, 10-bis(dihydrogenphosphate)]
- effect upon expression of the investigated markers (CD40, CD80, CD83, CD86), % of LPS action: ≤ 20%
